The other results are listed elsewhere or left out. At the low end of the ranking the order means little.

The target in this test is SIX1-Q177R homeodomain (UniProt Q15475). The test can be described thus: universal protein binding microarray. As to conditions: Universal all-10-mer PBM (8x60K, AMADID 030236), 300 nM GST-tagged protein, Alexa Fluor 488 anti-GST; buffer, salt, pH and temperature not stated; high values mean tight binding; most listed sequences are background and not binding sites; double strand, one strand shown.
As for ATGTATGA, the binding signal came to 0.0351 E-score. On to GGTGCGGA, for which the binding signal came out at 0.0489 E-score.

Turning to CTAGCACA, the binding signal is -0.0486 E-score. As for CCTACTTC, the binding signal was -0.106 E-score. Regarding TGTCTGAA, the binding signal is 0.0965 E-score. Under TAGCCGCA stands -0.0681 E-score; under CACTCCAA, 0.161 E-score; under CTGGTGTC, 0.483 E-score. For GGCAAAAA, the binding signal was -0.224 E-score.

Take ACTAGGGG: the binding signal worked out at 0.123 E-score. Regarding TCACTAGA, the binding signal was determined as 0.0337 E-score.

With CGGCCGAA, the binding signal is -0.181 E-score. Turning to CAATCTGG, the binding signal worked out at 0.111 E-score. Under AGTGACTC stands 0.193 E-score.

Regarding GTTAGCTA, the binding signal was -0.174 E-score.

Turning to AAGTAAAG, the binding signal is -0.353 E-score. Under ACAACCCG stands 0.0997 E-score; under ACACACCG, 0.428 E-score. For ATGTTTCC, the binding signal is -0.145 E-score.

With CGTGGCTC, the binding signal was -0.112 E-score. With ATGTTCTG, the binding signal is -0.0718 E-score.

For the sequence ACGGCAAT, the binding signal is -0.178 E-score.

As for ACATGTAC, the binding signal is 0.0322 E-score. With CTACGACC, the binding signal was 0.0495 E-score. As to GCCATTTA, the binding signal was -0.0791 E-score. Under ATCTAAAT stands -0.12 E-score. Turning to GAAAGAAC, the binding signal was -0.104 E-score. As to CACCCGAC, the binding signal was found to be 0.358 E-score. Take AACGTCGT: the binding signal is -0.225 E-score.

Turning to AGCCAACC, the binding signal came to 0.0218 E-score.

With AGCAGCCG, the binding signal was -0.15 E-score. Consider GACGCTAC, for which the binding signal is 0.0349 E-score. With AATTGAAA, the binding signal is -0.227 E-score. On to ATGCGTAG, for which the binding signal was -0.0817 E-score.

As to GAAACTAA, the binding signal is -0.27 E-score. For CATGTTCA, the binding signal was -0.189 E-score. AATTAGAC: the binding signal was -0.0992 E-score. Turning to ACCTCTCT, the binding signal worked out at 0.0132 E-score.

Consider AACTACGT, for which the binding signal is -0.0914 E-score.

In the case of CGGACGGC, the binding signal was -0.214 E-score.

With ATTCAAGG, the binding signal was found to be 0.00488 E-score. Under CCTTCCCG stands -0.0521 E-score; under GCCGCACA, -0.126 E-score; under GTTTATCA, -0.0583 E-score. With CAGAGATG, the binding signal is -0.0916 E-score. Take AGTTATGA: the binding signal is -0.0578 E-score. On to AGTCATTC, for which the binding signal was -0.0942 E-score. Consider ACTTCGCA, for which the binding signal is -0.162 E-score.

As for GTACCTAA, the binding signal was determined as 0.114 E-score.

Regarding AATTTTGT, the binding signal was -0.139 E-score. For the sequence CCCTTGGA, the binding signal was found to be 0.0288 E-score. With ACTATGGC, the binding signal was -0.0518 E-score. Under CACCTGCC stands 0.225 E-score; under CAACTCTC, -0.00359 E-score; under CCAAATGA, 0.0231 E-score. As for AAGGCCGA, the binding signal is -0.107 E-score. Regarding ATTTTCAC, the binding signal is 0.0229 E-score. Under CTAACTTC stands -0.247 E-score; under CCCACTAG, -0.0273 E-score. On to AAGTCAAT, for which the binding signal is -0.16 E-score. For GCTGCGAC, the binding signal is -0.169 E-score. For TGGAGTAA, the binding signal was 0.233 E-score. Under ATTGCCCG stands -0.136 E-score; under CGCCCGTA, -0.0801 E-score. Under GCCACAGA stands -0.0115 E-score; under GAATTGAA, -0.106 E-score. With ACGACGCA, the binding signal came to 0.0134 E-score.

Take GAACAGGA: the binding signal is -0.0192 E-score. On to ACGCAATG, for which the binding signal is -0.00421 E-score. Under AACTGCAT stands -0.192 E-score. On to ACGCTTAT, for which the binding signal is 0.0704 E-score.

As to ACCATTAT, the binding signal was -0.00154 E-score.

With CCCATGCA, the binding signal turned out to be 0.0909 E-score. With GAAAGTGC, the binding signal is -0.223 E-score. For GTACTTTA, the binding signal stood at 0.0809 E-score. As for CCTGGATC, the binding signal came to 0.0322 E-score. Under AGAGCTCA stands -0.24 E-score; under CGAAGGGC, -0.159 E-score; under CGACTACG, 0.0262 E-score.

For the sequence ATACGCTC, the binding signal was -0.13 E-score.

With CCAAGCCG, the binding signal came out at 0.0413 E-score. As for GGCGCCTA, the binding signal was -0.219 E-score. For GCCCGGGA, the binding signal came out at 0.00266 E-score. In the case of AGGCGTAG, the binding signal is -0.0918 E-score.

In the case of CCGTTTCG, the binding signal was -0.169 E-score. In the case of GGGTTAGA, the binding signal was found to be 0.149 E-score.

Regarding CCGATCAC, the binding signal was determined as 0.0886 E-score. In the case of CTTCAGTA, the binding signal is -0.153 E-score. For the sequence CCCCTTAA, the binding signal came to 0.114 E-score. With TATAGCCA, the binding signal was -0.0323 E-score. Regarding CTGGACAC, the binding signal was 0.406 E-score. Turning to ATGAATCG, the binding signal is -0.229 E-score.

CTCACATA: the binding signal was 0.0518 E-score. Consider CTGACCGA, for which the binding signal is -0.116 E-score. Under ATTCGCTC stands -0.11 E-score. As to GTTGCCCA, the binding signal is -0.0908 E-score. As to AGGGACGG, the binding signal is -0.117 E-score. Consider GCTGTACA, for which the binding signal is 0.208 E-score. With ACGGTCGG, the binding signal is 0.0757 E-score. CTCCCGCC: the binding signal is -0.0386 E-score. Under GAATATCC stands -0.197 E-score.

Turning to AAGTCATT, the binding signal was -0.347 E-score.

In the case of TGTCAACA, the binding signal was 0.281 E-score. GAAGCTAC: the binding signal was -0.177 E-score.

Consider AAACTATC, for which the binding signal was -0.226 E-score.

As for TCCACGCA, the binding signal is -0.0137 E-score. On to CTTGTTAA, for which the binding signal was -0.0879 E-score. Under GAATATGC stands -0.133 E-score; under CCCAGTCC, -0.0684 E-score. As to GTGAAATA, the binding signal stood at 0.172 E-score. As to ATCAAGCC, the binding signal is -0.203 E-score.

For the sequence AGATACCA, the binding signal turned out to be 0.192 E-score. As for GAAGGCGA, the binding signal was -0.112 E-score. For the sequence ATTATAAC, the binding signal was -0.0486 E-score. Under ACGCGCAC stands 0.0474 E-score; under CCGAGAAC, -0.1 E-score. Under AGTCTTTA stands -0.281 E-score; under CAACTTAC, 0.117 E-score. Regarding GTGCAATA, the binding signal stood at 0.128 E-score.

With ATAAAGTA, the binding signal is -0.172 E-score. Regarding CCCTGATA, the binding signal was -0.0605 E-score. Turning to ACGGATTG, the binding signal was -0.0324 E-score. Turning to CCGTGTTC, the binding signal is 0.384 E-score.

As for GAAGACCC, the binding signal is -0.0702 E-score. Take AGCACTAA: the binding signal was -0.147 E-score. With GACAAAAC, the binding signal is -0.109 E-score. On to AGTTAAAC, for which the binding signal was determined as 0.0943 E-score. Take CTCAGAAA: the binding signal is -0.096 E-score. On to AGCGCAGC, for which the binding signal is -0.163 E-score. In the case of AGACGGGC, the binding signal turned out to be 0.0434 E-score. Under CACTTAGG stands 0.229 E-score; under AGAATAGC, -0.122 E-score.

With CACGCCTA, the binding signal worked out at 0.214 E-score.

In the case of ACGTGCCC, the binding signal is -0.0511 E-score. For GCCCCAGA, the binding signal was -0.0984 E-score.

For CTCCTGCC, the binding signal amounted to 0.0305 E-score. AAAATGGA: the binding signal was -0.0767 E-score.

Consider AGCGTCTA, for which the binding signal came out at 0.0612 E-score. Take ACGTACCC: the binding signal turned out to be 0.202 E-score. Turning to CAACTGAC, the binding signal was -0.0476 E-score. Under CCCTAGGG stands 0.0954 E-score.

With CGCGAAGA, the binding signal is -0.124 E-score. In the case of GACCTGGA, the binding signal was determined as 0.0327 E-score.

For CGGCGGGC, the binding signal is -0.0477 E-score. Under AACCTAAG stands -0.19 E-score; under CACTCTCC, 0.192 E-score; under TGTGCTAA, -0.0775 E-score. Under CCAGTTTA stands 0.227 E-score; under ACCGGGCT, 0.0701 E-score; under CGTTTGGA, -0.146 E-score.

For AATTAGGC, the binding signal is -0.0885 E-score. Take ACTTGATA: the binding signal was 0.13 E-score. For AAAGCGGG, the binding signal is -0.031 E-score. GTGTTAAA: the binding signal came to 0.403 E-score. On to CACTAACC, for which the binding signal stood at 0.17 E-score. As to ACCGAAAT, the binding signal was -0.074 E-score. For the sequence CTGCGCAA, the binding signal is -0.0439 E-score.

Take ATTGATGG: the binding signal was -0.0681 E-score. Regarding AGATGTAT, the binding signal was -0.016 E-score. For ACTCGTGC, the binding signal turned out to be 0.0141 E-score.

Regarding GTGAGCTA, the binding signal was -0.0748 E-score. Consider GCCACGGA, for which the binding signal was -0.0298 E-score.

Consider CTTGATAA, for which the binding signal is -0.128 E-score.

Regarding AGGGAAAG, the binding signal was -0.0944 E-score. Turning to AGTCCCCA, the binding signal is -0.147 E-score.

Consider CGCCGCCG, for which the binding signal was 0.208 E-score.

For the sequence CCGCTCCA, the binding signal was found to be 0.0989 E-score. For the sequence CCAACAAG, the binding signal came out at 0.0219 E-score. Consider AACAATAA, for which the binding signal is -0.0417 E-score.

With CGGTTATA, the binding signal is -0.139 E-score. Under TATTCGAA stands -0.277 E-score; under AGCGGTGA, -0.128 E-score.

The record behind these values is paper PMC10668032.
